# Measurements as given in the supplement of paper PMC11283458.
# The list shows a part of the results. Single values are uncertain, as repeats are few or missing.
# Legend:
# [1] = tested on: Mef2d microexon dual Nano/Firefly luciferase splicing reporter in Neuro-2a cells; experiment: B-score of Firefly/Nano luminescence ratio, V1 Mef2d microexon reporter (B-score (plate-normalised)); higher = more Mef2d microexon inclusion; settings: 24 h
# [2] = tested on: Mef2d microexon dual Nano/Firefly luciferase splicing reporter in Neuro-2a cells; experiment: B-score of Nano/Firefly luminescence ratio, V2 Mef2d microexon reporter (B-score (plate-normalised)); higher = more Mef2d microexon inclusion; settings: 24 h
# [3] = tested on: Asph alternative exon (endogenous); experiment: delta PSI of alternative exon relative to 0.4% DMSO control (RT-PCR) (percentage points); higher = more exon inclusion; settings: concentration: not stated (optimised per compound); Neuro-2a
# Method: (§1)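 Reads PSI of the Mef2d reporter microexon and of endogenous mouse neural alternative exons. dPSI is relative to the 0.4% DMSO control, single replicate.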
# [4] = tested on: Mast2 alternative exon (endogenous); experiment: as above; settings: concentration: not stated (optimised per compound); Neuro-2a
# Method: as §1
# [5] = tested on: Trappc9 microexon (endogenous); experiment: as above; settings: concentration: not stated (optimised per compound); Neuro-2a
# Method: as §1
# [6] = tested on: Zdhhc20 alternative exon (endogenous); experiment: as above; settings: concentration: not stated (optimised per compound); Neuro-2a
# Method: as §1
# 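For B-score of Nano/Firefly luminescence ratio, V2 Mef2d microexon reporter in this document: compounds at 4 µM (PKI library 0.5 µM) on Dox-inducible N2A Flp-In cells with PEST-tagged luciferases, 384-well plates, B-score from per-plate median-polish residual over median absolute residual.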
# 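For delta PSI of alternative exon relative to 0.4% DMSO control (RT-PCR) in this document: exons read include endogenous Mef2d, Mast2, Ergic3 and Trappc9 microexons plus the longer neural-regulated Zdhhc20, Mgrn1 and Asph cassette exons, alongside the reporter microexon.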
smiles,measurement,setting,value
CS(=O)c1sc(C(=O)OCc2ccccc2)c2c1C(=O)CC(C)(C)C2 (stereo not given) (4 µM),B-score,[1],6.11
same,B-score,[2],3.56
Cc1ccc(Cl)cc1NC(=O)CC(C)CC(=O)O (stereo not given) (4 µM),B-score,[1],7.47
same,B-score,[2],0.952
COc1cc2c(cc1O)CC[C@@H]1[C@@H]2CC[C@]2(C)[C@@H](O)CC[C@@H]12 [2-Methoxyestradiol] (4 µM),B-score,[1],-3.06
same,B-score,[2],-5.47
O=C(COc1ccc(C2=Nc3ccccc3NC(c3ccccc3)C2)cc1)Nc1ccccc1 (stereo not given) (4 µM),B-score,[1],3.37
same,B-score,[2],1.12
COc1ccc(-c2ccc3c(N4CCOC[C@@H]4C)nc(N4CCOC[C@@H]4C)nc3n2)cc1CO (0.5 µM),B-score,[1],-7.5
same,B-score,[2],-6.28
Cc1ccc(C(=O)Nc2ccc(CN3CCN(C)CC3)c(C(F)(F)F)c2)cc1C#Cc1cnc2cccnn12 (0.5 µM),B-score,[1],5.67
same,B-score,[2],8.2
COc1ccc(-c2cc3c(C)nc(N)nc3n([C@H]3CC[C@H](OCCO)CC3)c2=O)cn1 (0.5 µM),B-score,[1],-5.23
same,B-score,[2],-5.67
COc1ccc(N/C=C(/C#N)c2nc(-c3ccc(C)cc3C)cs2)cc1 (4 µM),B-score,[1],-12.1
same,B-score,[2],-13
CC1(C)CC(Nc2ccc(Nc3ccccc3)cc2)CC(C)(C)N1 (4 µM),B-score,[1],5.59
same,B-score,[2],1.25
Cc1c(C(=O)ON=C(N)c2cc(C(F)(F)F)cc(C(F)(F)F)c2)sc2cc(C(C)(C)C)sc12 (4 µM),B-score,[1],11
same,B-score,[2],4.42
CS(=NS(=O)(=O)c1cccc2nsnc12)c1ncc(C(F)(F)F)cc1Cl (stereo not given) (4 µM),B-score,[1],8.8
same,B-score,[2],5.84
CC(=O)OC1(C(=O)/C=C/c2ccccc2)CCCCC1 (4 µM),B-score,[1],-4.5
same,B-score,[2],-2.63
"Cn1c(=O)n(-c2ccc(C(C)(C)C#N)cc2)c2c3cc(-c4cnc5ccccc5c4)ccc3ncc21 [NVP-BEZ235, BEZ235, BEZ-235, Dactolisib] (0.5 µM)",B-score,[1],-3.91
same,B-score,[2],-5.28
N#Cc1sc(SCc2ccccc2)c2c1CC(c1ccccc1)CC2=O (stereo not given) (4 µM),B-score,[1],-1.49
same,B-score,[2],-9.21
"COc1cc(Nc2ncc3c(n2)-c2ccc(Cl)cc2C(c2c(F)cccc2OC)=NC3)ccc1C(=O)O [MLN-8237, Alisertib] (0.5 µM)",B-score,[1],-2.27
same,B-score,[2],-4.54
O=C(NCCNc1ccc(C(F)(F)F)cn1)Nc1ccccc1Cl (4 µM),B-score,[1],-21.8
same,B-score,[2],-28
O=C(Nc1c[nH]nc1-c1nc2ccc(CN3CCOCC3)cc2[nH]1)NC1CC1 (0.5 µM),B-score,[1],-2.48
same,B-score,[2],-8.47
Cc1noc(C)c1C(=O)ON=C(N)c1cccc(C(F)(F)F)c1 (4 µM),B-score,[1],13.4
same,B-score,[2],2.4
O=[N+]([O-])c1ccc(SC2=NCCS2)c([N+](=O)[O-])c1 (4 µM),B-score,[1],-0.164
same,B-score,[2],-6.35
COc1cc2c(cc1OC)C(c1ccc(Cl)cc1Cl)N(c1ccc(C)cc1)C(=O)C2 (stereo not given) (4 µM),B-score,[1],-7.31
same,B-score,[2],-8.23
Cc1onc(-c2ccccc2)c1C(=O)ON=C1C2CC3CC(C2)CC1C3 (4 µM),B-score,[1],9.14
same,B-score,[2],1.4
CCCCCCOC(=O)c1cc([N+](=O)[O-])cc2c1-c1ccc([N+](=O)[O-])cc1C2=C(C#N)C#N (4 µM),B-score,[1],15.6
same,B-score,[2],2.76
Oc1ccccc1/C=N/NC(=S)Nc1cc(C(F)(F)F)ccc1Cl (4 µM),B-score,[1],-9.16
same,B-score,[2],-7.27
O=C1NC(=O)/C(=C/c2ccc3nccc(-c4ccncc4)c3c2)S1 (0.5 µM),B-score,[1],-8.82
same,B-score,[2],-1.54
COc1ccc(C(=O)ON=C(N)c2nccnc2Oc2cccc(C(F)(F)F)c2)cc1OC (4 µM),B-score,[1],15
same,B-score,[2],6.73
CC(C)(C)c1cc(/C=C(\C#N)C(N)=S)cc(C(C)(C)C)c1O [Tyrphostin AG 879] (4 µM),B-score,[1],-7.27
same,B-score,[2],-2.06
c1ccc(C2=Nc3ccccc3NC(c3ccccc3)C2)cc1 (stereo not given) (4 µM),B-score,[1],2.78
same,B-score,[2],1.02
CCCCOc1ccc(C2CC(=O)C3=C(C2)c2c(ccc4ccccc24)NC3c2ccc(OC)c(OC)c2)cc1 (stereo not given) (4 µM),B-score,[1],3.73
same,B-score,[2],3.34
O=S(=O)(N/N=C/c1cc(Cl)cc(Cl)c1O)c1ccc(Cl)cc1 (4 µM),B-score,[1],27.6
same,B-score,[2],49.3
COc1cccn(CC(=O)NNS(=O)(=O)c2ccccc2)c1=O (4 µM),B-score,[1],1.01
same,B-score,[2],6.31
O=C(OCc1ccc(Cl)cc1)c1cnc(Sc2cc(C(F)(F)F)cc(C(F)(F)F)c2)nc1C(F)(F)F (4 µM),B-score,[1],7.1
same,B-score,[2],3.01
Cc1cc(C(=O)NOCCO)c(Nc2ccc(I)cc2F)n(C)c1=O (0.5 µM),B-score,[1],11.2
same,B-score,[2],8.17
CC1(COc2ccc3c(c2)ncn3-c2ccc3cccc(N4CCC(N)CC4)c3n2)COC1 (0.5 µM),B-score,[1],14.3
same,B-score,[2],11.9
CN(C)c1ccc(-n2nnnc2SCc2c(F)cccc2Cl)cc1 (4 µM),B-score,[1],-7.76
same,B-score,[2],-11.8
COc1cc2nccc(Oc3ccc(NC(=O)Nc4ccc(F)cc4F)c(F)c3)c2cc1OC (0.5 µM),B-score,[1],4.95
same,B-score,[2],8.1
Cc1ccc(C(=O)C=CSc2ncc(C(F)(F)F)cc2Cl)cc1 (4 µM),B-score,[1],-2.63
same,B-score,[2],-7.55
CCCCCCc1ccccc1NC(=O)Nc1cccnc1,delta PSI of alternative exon,[3],1.38
same,delta PSI of alternative exon,[4],0.757
same,delta PSI of alternative exon,[5],-1.31
same,delta PSI of alternative exon,[6],2.59
CC(C)(C)c1ccc2cc(C#N)c(C#N)cc2c1,delta PSI of alternative exon,[3],-5.16
same,delta PSI of alternative exon,[4],-8.48
same,delta PSI of alternative exon,[5],1.48
same,delta PSI of alternative exon,[6],-2.95
C=CCn1c(N)c(C(=O)NN=Cc2cccs2)sc1=S,delta PSI of alternative exon,[3],-0.784
same,delta PSI of alternative exon,[4],0.308
same,delta PSI of alternative exon,[5],-2
same,delta PSI of alternative exon,[6],1.5
Cc1onc(-c2ccccc2)c1C(=O)Nc1c(C(C)(C)C)nn(C)c1C(C)(C)C,delta PSI of alternative exon,[3],0.125
same,delta PSI of alternative exon,[5],-2.21
same,delta PSI of alternative exon,[6],-1.88
CC(=O)c1sc(-c2ccccc2)cc1NS(=O)(=O)c1ccc(C)c(Cl)c1,delta PSI of alternative exon,[3],0.739
same,delta PSI of alternative exon,[4],1.41
same,delta PSI of alternative exon,[5],0.0668
same,delta PSI of alternative exon,[6],0.0018
COc1ccc(/C(N)=N/OC(=O)c2c(-c3ccccc3Cl)noc2C)cc1OC (4 µM),B-score,[1],4.32
same,B-score,[2],4.47
COc1cc2ncn(-c3cc(OCc4ccccc4C(F)(F)F)c(C(N)=O)s3)c2cc1OC,delta PSI of alternative exon,[3],-0.841
same,delta PSI of alternative exon,[4],-6.07
same,delta PSI of alternative exon,[5],0.684
same,delta PSI of alternative exon,[6],-2.86
O=C(C=C(C(=O)c1ccccc1)c1ccccc1)c1ccc2c(c1)OCCO2,delta PSI of alternative exon,[3],-2.64
same,delta PSI of alternative exon,[5],2.6
same,delta PSI of alternative exon,[6],-3.55
